In all, about 50,000 compounds went through this assay and about 800 (1.6%) showed an effect of 50% or more. This is one part of the list.
Biological target: Bcl-2-like protein 10 (Homo sapiens) (UniProt Q9HD36)
Assay: Phenotype converters, Bcl-B/TR3 peptide binding displacement, primary biochemical FP (AID 1240);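 note: 0% = Bcl-B with tracer peptide and DMSO and 100% = tracer peptide lacking Bcl-B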
Conditions: GST-Bcl-B / FITC-TR3 peptide fluorescence polarization; stronger effect = higher value; compound at 3.75 mg/L

Chain of UniProt Q9HD36 (Q9HD36 whole entry, looked up): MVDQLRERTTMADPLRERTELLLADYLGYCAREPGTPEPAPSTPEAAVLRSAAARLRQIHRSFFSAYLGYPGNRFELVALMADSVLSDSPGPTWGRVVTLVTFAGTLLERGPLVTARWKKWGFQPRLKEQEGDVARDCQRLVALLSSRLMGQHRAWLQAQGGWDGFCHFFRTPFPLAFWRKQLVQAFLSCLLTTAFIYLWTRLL

Going from `O=C(NCc1ccncc1)C(=O)Nc1ccccc1Cl` to `NC(=O)SCC(=O)Nc1ccccc1Cl`, the displacement rises from -5.1% to -2.4%.

First: Cc1nc2cc(NCc3ccc(N(C)C)cc3)ccc2n1Cc1ccccc1
Second: Cc1ccc(S(=O)(=O)N(CCc2ccccc2)CC(=O)Nc2ccc(Cl)cc2Cl)cc1
The displacement of the first is lower: 10.4% for the first, 13.2% for the second.

Going from `O=C1N=C(N2CCOCC2)S/C1=C\c1c(Cl)cccc1Cl` to `Cc1onc(-c2c(Cl)cccc2Cl)c1C(=O)N1CCN(Cc2ccccc2)CC1`, the displacement rises from -0.6% to 0.2%.

Going from `CC1(C)CC(=O)C=C(NCCN2CCN(C(=S)Nc3ccccc3)CC2)C1` to `CC(=O)C1=C(O)CC(C)(C)CC1=NCCc1ccccc1`, the displacement falls from -6% to -11.2%.

First: COc1ccccc1OCCCCCCc1c(C)n[nH]c1C
Second: CCOC(=O)C(=CNc1ccccc1OCC)C(=O)OCC
The displacement of the first is higher: 12.2% for the first, 2.7% for the second.

First: CC1=C(C(=O)OCCOc2ccccc2)C(c2ccc(C)cc2)C2=C(CCCC2=O)N1 (stereo unspecified)
Second: CC1=C(C(=O)Nc2ccc(Cl)cc2)C(c2ccc(C)cc2)NC(=S)N1 (stereo unspecified)
The displacement of the first is higher: 2.6% for the first, -6.2% for the second.

Going from `O=C(COc1ccccc1Cl)N/N=C/c1ccc(-c2ccccc2[N+](=O)[O-])o1` to `NC(=O)c1ccccc1N=Cc1cccc2ccccc12`, the displacement rises from 2.6% to 2.9%.

First: COc1ccc(C2/C(=C(\O)c3ccc(Cl)cc3)C(=O)C(=O)N2c2cccnc2)c(OC)c1 (stereo unspecified)
Second: COc1ccc(-c2cc(C(=O)Nc3cccc(Br)c3)c3ccccc3n2)c(OC)c1
The displacement of the first is lower: -7.1% for the first, -5.9% for the second.

Going from `CCn1c(-c2cccc(Cl)c2)n[nH]c1=S` to `CCOc1ccccc1NC(=O)COc1cccc(Cl)c1`, the displacement falls from 10.4% to -9.3%.

First: Cc1ccc(C)c(-c2cc(C(=O)NN)c3ccccc3n2)c1
Second: Cc1ccc(-c2nc3ccccc3s2)cc1NC(=O)c1cccc(I)c1
The displacement of the first is lower: -9% for the first, 1.2% for the second.

First: COc1cccc(-c2nnc(-c3ccncc3)o2)c1
Second: COc1ccc(/C(N)=N/OC(=O)c2cccc(F)c2)cc1
The displacement of the first is higher: 6.6% for the first, -1.8% for the second.

First: COc1ccc(OC)c(C(C)NC=O)c1 (stereo unspecified)
Second: COc1cc(C(=O)Nc2ccc([N+](=O)[O-])cn2)cc(OC)c1OC
The displacement of the first is higher: 2.3% for the first, -7.9% for the second.

Compared with `COc1cc(NS(=O)(=O)c2cc(Cl)ccc2Cl)c(OC)cc1Cl`, `COc1ccc(NC(=O)CN(c2ccc(Cl)cc2)S(C)(=O)=O)cc1OC` is higher in displacement: -2% for the first, 17% for the second.

Compared with `O=C(Nc1ccc(NC(=O)c2ccc(Cl)cc2Cl)cc1)c1ccc(Cl)c(Cl)c1`, `COc1cc2ccccc2cc1C(=O)Nc1ccc(S(=O)(=O)Nc2nccs2)cc1` is lower in displacement: 9.3% for the first, 2.2% for the second.

Compared with `COc1cc2c(cc1OC)C(C)N(C(=O)C1COc3ccccc3O1)CC2` (stereo unspecified), `COc1ccc(C2CC(C(F)(F)F)n3ncc(C(=O)N4CCN(Cc5ccccc5)CC4)c3N2)cc1OC` (stereo unspecified) is lower in displacement: 2.3% for the first, -2.8% for the second.

First: CCOc1ccc(S(=O)(=O)N2CCCCCC2)c2ccccc12
Second: O=C(Nc1cccc(-c2nc3ccccc3s2)c1)c1ccc(S(=O)(=O)N2CCCC2)cc1
The displacement of the first is lower: 1% for the first, 5.3% for the second.

Going from `O=c1c(=N/Nc2ccccc2)/c(=N\Nc2ccccc2)c2ccccc12` to `Cc1cc(Cc2ccc(NC(=O)Nc3ccccc3)c(C)c2)ccc1NC(=O)Nc1ccccc1`, the displacement rises from 5% to 5.7%.

Going from `Cc1cc(/C=N/NC(N)=O)c(C)n1-c1ccc(F)cc1` to `O=C(CSc1nc2ccccc2[nH]1)N/N=C/c1ccccc1F`, the displacement falls from 5.7% to -2.6%.

Compared with `Cn1ccnc1SCC(=O)c1ccc(Br)cc1`, `Cc1c(C#N)c(N)c(C(=O)c2ccc(Br)cc2)n1-c1ccc(Br)cc1` is lower in displacement: 13.6% for the first, 0.2% for the second.

Compared with `CCCCOC(C)n1cc(Cl)c(=O)[nH]c1=O` (stereo unspecified), `CCCOc1ccc(C(=O)NCc2ccccc2)cc1` is higher in displacement: 10.4% for the first, 11% for the second.

Compared with `CC(=O)N(/C=C1\Sc2ccccc2C1=O)c1ccc(C)cc1`, `Cc1ccc(N(CC(=O)Nc2c(C)n(C)n(-c3ccccc3)c2=O)S(=O)(=O)c2ccccc2)cc1` is higher in displacement: 2.4% for the first, 10.7% for the second.

First: O=C1N=c2ccccc2=C1N=Nc1nc(O)c(-c2c(O)[nH]c3ccccc23)s1
Second: CCc1ccccc1NC(=O)c1cc2ccccc2o1
The displacement of the first is higher: 22.8% for the first, -2.8% for the second.

Going from `Cc1ccc(N(CC(=O)N2CCCC2)S(C)(=O)=O)cc1Cl` to `O=C(CSc1nc2ccccc2[nH]1)N1CCCCC1`, the displacement rises from 3.9% to 4.4%.

First: CCOC(=O)c1c(NC(=O)c2cccs2)sc(C(=O)Nc2cc(C(F)(F)F)ccc2Cl)c1C
Second: Cc1sc(NC(=O)c2ccc(-c3ccccc3)cc2)c(C(N)=O)c1C
The displacement of the first is higher: 12.2% for the first, -5.3% for the second.

First: CN(C)C=Nc1ncnc2c(C#N)c3n(c12)CCCCC3
Second: O=[N+]([O-])c1ccc(N2CCCC2)cc1N1CCCCC1
The displacement of the first is lower: 1% for the first, 17.8% for the second.

First: O=C1C2CCCC2=NN1c1ccccc1 (stereo unspecified)
Second: Cn1c(=O)c2c(nc(NCCc3ccccc3)n2C)n(C)c1=O
The displacement of the first is higher: 2.5% for the first, -7.5% for the second.

Going from `Cc1ccc(-n2cnc(N)c2C(=O)c2ccc([N+](=O)[O-])cc2)cc1` to `O=[N+]([O-])c1ccc(-c2csc3[n+]2CCS3)cc1`, the displacement falls from 10.9% to -23.2%.

First: COC(=O)CNC(=O)c1ccccc1F
Second: CC(C)CNC(=O)c1ccccc1NC(=O)Cc1ccc(Cl)cc1
The displacement of the first is higher: 9.1% for the first, 0.4% for the second.

Going from `CCOc1cccc(N2C(=O)/C(=C/c3ccc(N(CC)CC)cc3OC)C(=O)NC2=S)c1` to `CCOc1ccc(N2C(=O)NC(=O)/C(=C/c3cccc(OC)c3)C2=O)cc1`, the displacement rises from -60.4% to 13%.

Compared with `O=C1/C(=C\c2ccc(O)c(O)c2)SC(=S)N1c1cccc(C(F)(F)F)c1`, `CCN1C(=O)/C(=C/c2c(NCCCn3ccnc3)nc3c(C)cccn3c2=O)SC1=S` is lower in displacement: 9.3% for the first, 2.9% for the second.

Going from `COc1ccc(C2C(C#N)=C(N)Oc3c2sc2ccccc32)c(OC)c1` (stereo unspecified) to `COc1cc(NC(=O)C(c2ccccc2)c2ccccc2)cc(OC)c1`, the displacement rises from -16% to 10.7%.

Compared with `COc1ccc(C(=O)/C=C/Nc2ccc(S(=O)(=O)N=C(N)N)cc2)cc1OC`, `CC1=C(C(=O)Nc2ccc(Br)cc2)C(c2ccccc2Br)NC(=O)N1` (stereo unspecified) is lower in displacement: 15.4% for the first, -2.5% for the second.

First: CCOc1cccc(C(=O)Nc2c(C)ccc3nsnc23)c1
Second: Cc1ccnc(NC(=O)CSc2nc3ccccc3s2)c1
The displacement of the first is higher: 4.5% for the first, -8.4% for the second.

Going from `CS(=O)(=O)Nc1ccc(S(=O)(=O)N2CCOCC2)cc1` to `O=C(CN1C(=O)c2ccccc2C1=O)N1CCN(c2ccccc2Cl)CC1`, the displacement falls from 8.4% to 6.9%.

Going from `Cc1ccn2c(NC(=O)c3ccccc3)c(-c3cccs3)nc2c1` to `O=C1NC(=O)N(c2ccc(Cl)cc2)C(=O)/C1=C/c1ccc(-c2ccc(Cl)c(C(=O)O)c2)o1`, the displacement rises from 8.5% to 72.5%.

For `CCN(CC)CCNc1nc2nonc2nc1NCCN(CC)CC`, the displacement was -0.5%.
